Numbering of substitutions follows the chain as printed. Results are given in words; binding and its absence hold for the method and conditions named. Binding seen in cells or lysates may run through a third protein. Some binding calls cover weakened binding; strength is not graded here. Tags and fused reporters may be left off the sequences shown.
Key:
GST-LASP1 Y171D (human) = target: T1, GST-LASP1 Y171D (human) (UniProt Q14847); assay: pull-down; GST-LASP1 phospho-mutants on glutathione-agarose beads with 231S total lysate (Co-IP buffer; endogenous LASP1 present); Western blot for Ago2; only the target purified
T1 sequence: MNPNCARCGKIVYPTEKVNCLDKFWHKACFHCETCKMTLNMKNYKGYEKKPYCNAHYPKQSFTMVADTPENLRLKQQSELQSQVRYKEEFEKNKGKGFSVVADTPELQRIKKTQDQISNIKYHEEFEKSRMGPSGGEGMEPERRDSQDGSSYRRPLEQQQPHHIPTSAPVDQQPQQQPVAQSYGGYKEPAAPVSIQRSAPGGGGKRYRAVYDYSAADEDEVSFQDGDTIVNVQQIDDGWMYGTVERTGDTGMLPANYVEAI

The chains behind the UniProt entries cited, without tags or fusion partners.
UniProt Q9UKV8: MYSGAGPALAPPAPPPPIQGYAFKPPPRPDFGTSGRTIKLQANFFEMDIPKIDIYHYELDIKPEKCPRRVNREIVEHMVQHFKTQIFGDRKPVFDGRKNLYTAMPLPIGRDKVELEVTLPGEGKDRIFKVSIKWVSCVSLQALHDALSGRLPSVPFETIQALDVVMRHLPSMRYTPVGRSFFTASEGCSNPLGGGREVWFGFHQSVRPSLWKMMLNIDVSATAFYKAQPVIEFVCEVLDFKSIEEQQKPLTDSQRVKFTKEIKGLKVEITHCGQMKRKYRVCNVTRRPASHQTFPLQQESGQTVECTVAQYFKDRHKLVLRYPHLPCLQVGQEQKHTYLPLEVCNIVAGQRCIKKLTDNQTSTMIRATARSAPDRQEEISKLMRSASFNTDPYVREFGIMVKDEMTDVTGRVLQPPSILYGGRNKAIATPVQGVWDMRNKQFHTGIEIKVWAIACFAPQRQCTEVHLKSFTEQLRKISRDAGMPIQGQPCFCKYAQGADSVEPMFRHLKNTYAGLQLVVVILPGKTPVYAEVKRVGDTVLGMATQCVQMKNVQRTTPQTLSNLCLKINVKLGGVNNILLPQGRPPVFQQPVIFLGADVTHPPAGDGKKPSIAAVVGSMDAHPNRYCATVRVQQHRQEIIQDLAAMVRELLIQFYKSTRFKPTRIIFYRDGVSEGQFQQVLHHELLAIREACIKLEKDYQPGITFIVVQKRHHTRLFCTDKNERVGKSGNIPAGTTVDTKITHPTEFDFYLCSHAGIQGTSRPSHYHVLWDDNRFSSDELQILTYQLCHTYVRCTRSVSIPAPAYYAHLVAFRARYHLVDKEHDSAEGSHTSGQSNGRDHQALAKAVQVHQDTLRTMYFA

[1] = target: T2, GST-LASP1 S146D/Y171F (human) (UniProt Q14847); assay: as above
T2 sequence: T1 sequence with S146D, D171F

GST-LASP1 Y171F (human) = target: T3, GST-LASP1 Y171F (human) (UniProt Q14847); assay: as above
T3 sequence: T1 sequence with D171F

[2] = target: T4, GST-LASP1 S146A/Y171F (human) (UniProt Q14847); assay: as above
T4 sequence: T1 sequence with S146A, D171F

[3] = target: T5, GST-LASP1 S146D/Y171D (human) (UniProt Q14847); assay: as above
T5 sequence: T1 sequence with S146D

[4] = target: T6, GST-LASP1 S146A/Y171D (human) (UniProt Q14847); assay: as above
T6 sequence: T1 sequence with S146A

GST-LASP1 S146D (human) = target: T7, GST-LASP1 S146D (human) (UniProt Q14847); assay: as above
T7 sequence: T1 sequence with S146D, D171Y

[5] = target: T2, GST-LASP1 S146D/Y171F (human); assay: pull-down; 1.5 nmol GST-LASP1 phospho-mutants on glutathione-agarose beads with 1 mg of Bone-Un LASP1 knockout total lysate (Co-IP buffer), 2 h at 4 °C; Western blot for Ago2; only the target purified
[6] = target: T5, GST-LASP1 S146D/Y171D (human); assay: as above
[7] = target: T6, GST-LASP1 S146A/Y171D (human); assay: as above

**Q.** What does the source list for “argonaute 2 (Ago2), endogenous (from UniProt Q9UKV8 1-859)”?
**A.** binding (GST-LASP1 Y171D (human)): binds; binding [1]: binds weakly; binding (GST-LASP1 Y171F (human)): binds; binding [2]: binds; binding [3]: binds; binding [4]: binds; binding (GST-LASP1 S146D (human)): binds; binding [5]: binds weakly; binding [6]: binds; binding [7]: binds
